# Test results taken from patent US7335484B2, “Retinoid metabolizing protein” (Queen's University at Kingston, priority 1996, dated 2008).
# Assays:
# zP450RAI transcripts = test: Northern blot of zP450RAI transcripts in regenerating fin tissue of RA-treated fish; type: in vivo, Danio rerio; conditions: fish exposed to 10^−6 M RA in tank water for 24 hours
# Procedure: D. rerio were kept at 28.5° C. in 40 L tanks with 25-30 fish per tank on a 14 hour light-10 hour dark cycle. Tap water was conditioned by the addition of 10 ml of Water Conditioner (Sera Aqutan) and 10 ml of 250 g/L Aquarium Salt (Nutra Fin) per 20 L. 2-3 L of water was changed daily. Amputation of fins was carried out following anaesthetization of the fish in a solution of 0.2% ethyl-m-aminobenzoate methanesulfonic acid (ICN) in conditioned water. Retinoic acid treatment was performed by adding all-trans RA, to a final concentration of 10^−6 M, directly into the tank water two days following amputation. Both control- and RA-treated fish were kept in the dark during the experiments.
# Fish were allowed to regenerate their caudal fins for 72 hours. At 48 hours 10^−6M all-trans RA in DMSO vehicle or DMSO alone was added directly to the tank water. mRNA was prepared using the Micro Fast-Track mRNA isolation kit (Invitrogen, Calif.) according to the manufacturer's directions. 3.0-5.0 μg poly A^+ RNA was electrophoresed, blotted and probed using a previously described method [White, 1994] with the full length zP450RAI cDNA obtained as described below. […] See lanes 2 and 3 of FIG. 3(a).
# mP450RAI promoter = mP450RAI promoter luciferase reporter in HepG2 cells; type: cell-based, mouse; conditions: 10^−6 M RA, cotransfected RXRα and RARγ, both orientations of the promoter
# hP450RAI = target: T1, hP450RAI (Homo sapiens, UniProt O43174, E104D/H105D/L421A/M420S); test: Metabolism of RA by hP450RAI transfected COS-1 cells; type: in vitro ADME; conditions: COS-1 cells transfected with hP450RAI-pSG5, [11,12-3H]all-trans retinoic acid
# T1 construct: expressed in transfected cells; host or cells: COS-1, DEAE-dextran transient transfection with hP450RAI-pSG5, together with pE-AR and pE-ADX
# T1 sequence (O43174 1-497 E104D/H105D/M420S/L421A): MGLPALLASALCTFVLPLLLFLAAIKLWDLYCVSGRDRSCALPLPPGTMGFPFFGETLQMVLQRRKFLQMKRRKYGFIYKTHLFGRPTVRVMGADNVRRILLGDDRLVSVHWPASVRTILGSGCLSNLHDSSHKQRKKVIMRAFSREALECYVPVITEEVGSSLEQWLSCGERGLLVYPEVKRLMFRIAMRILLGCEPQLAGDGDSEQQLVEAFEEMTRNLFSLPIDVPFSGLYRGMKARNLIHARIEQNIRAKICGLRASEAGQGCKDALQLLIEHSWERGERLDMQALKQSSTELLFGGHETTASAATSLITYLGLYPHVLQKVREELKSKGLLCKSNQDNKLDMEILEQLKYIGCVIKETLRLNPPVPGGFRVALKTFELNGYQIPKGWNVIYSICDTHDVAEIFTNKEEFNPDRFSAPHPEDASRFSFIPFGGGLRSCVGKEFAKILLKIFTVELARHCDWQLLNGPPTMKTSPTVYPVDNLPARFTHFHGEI
# Procedure: COS-1 cells were subcultured 20 hours prior to transfection which was carried out according to the standard DEAE-dextran method [Sambrook, 1989; Maniatis, 1982]. Cells were transfected with pE-AR (adrenodoxin expression vector, 1 μg/P100 plate) and pE-ADX (adrenodoxin reductase expression vector, 1 μg/P100 plate) together with 3 μg per plate of either pSG5 (control) or hP450RAI-pSG5 (experimental). [11,12-^3H]all-trans retinoic acid (60,000 cpm per plate) was added 24 hours after transfection. […] Total amounts of 4-oxo-RA and 4-OH-RA produced in the transfected cells in comparison to amounts produced in the control cells are shown in FIGS. 11(a) and (b), respectively. Overall, greater amounts of aqueous soluble metabolites were produced in the transfected cells (FIG. 11(c)) and greater amounts of unmetabolized RA were found in control cells (FIG. 11(d)).
# hP450RAI mRNA = test: Inducibility of hP450RAI mRNA by RA in human cell lines, northern blot; type: cell-based
# Procedure: The clone sequence (SEQ ID NO:11) was prepared as a ^32[P]-dATP labeled probe to study the inducibility of hP450RAI by RA in several cell lines: HEK293; EL-E; HL-60; MCF10A; LC-T; SK-LC6; MCF7; U937; HepG2; NT2 (See FIGS. 5 to 7). […] The SK-LC6 human lung (epithelial) line appeared to constitutively express corresponding mRNA.
# The ^32[P]-dATP labeled probe was also used to study hP450RAI mRNA expression in a human acute promyelocytic leukemia cell line. Experiments were carried out using the NB4 cell line, isolated from a human acute promyelocytic leukemia patient, and three retinoic acid resistant cell lines were independently derived from NB4.
# NB4 cells = conditions: cited from earlier work
# [1] = test system: P450RAI message in MCF7 cells; test: Inhibition of P450RAI induction by 4-HPR, northern blot in MCF7 cells; type: cell-based, human; conditions: 12 hours
# Procedure: Experiments to determine the effect of 4-HPR on the induction of P450RAI were thus carried out. FIG. 17 illustrates the ability of the synthetic retinoid, 4-HPR to inhibit the induction of P450RAI by RA. MCF7 cells were grown in culture in minimal essential medium (MEM) (Gibco) supplemented with 10% fetal calf serum, insulin (0.01 mg/mL), MEM non-essential amino acids (as directed by the manufacturer—Gibco), sodium pyruvate (500 nM), L-glutamine (2 mM) gentamycin (10 μg/mL), penicillin (5 μg/mL), streptomycin (5 μg/mL), and fungizone (200 ng/mL). MCF7 cells cultured in parallel were treated for 12 hours with: 10 μM 4HPR; 1 μM 4HPR; 1 μM RA; 1 μM RA and 10 μM 4-HPR; or 1 μM RA and 1 μM 4-HPR. At the end of the 12 hour treatment, total RNA was extracted from the cells using TRIzol reagent (as outlined by the manufacturer—Gibco). P450RAI message in the total RNA preparations was analyzed by northern blot hybridization. The blot was reprobed with a probe corresponding to the GAPDH cDNA to control for equivalent loading of RNA in each lane of the blot.
SMILES,zP450RAI transcripts in regenerate tissue (zP450RAI transcripts),luciferase activity (mP450RAI promoter),conversion of RA into metabolites (hP450RAI),"hP450RAI mRNA expression in response to RA (hP450RAI mRNA; EL-E, HL-60 and MCF10A cell lines, 10^−6M RA)","hP450RAI mRNA expression in response to RA (hP450RAI mRNA; HEK293, LC-T, HepG2, NT2 and U937 cell lines, 10^−6M RA)","hP450RAI mRNA expression in response to RA (hP450RAI mRNA; MCF7 (human breast carcinoma) cell line, 10^−6M RA)","hP450RAI mRNA expression in response to RA (hP450RAI mRNA; normal NB4 cell line, 10^−6M RA)","hP450RAI mRNA expression in response to RA (hP450RAI mRNA; three retinoic acid resistant cell lines derived from NB4, 10^−6M RA)",effect on RA-induced RA catabolism (NB4 cells),suppression of RA induction of P450RAI message ([1]; 1 μM RA in the presence of 10 μM 4-HPR),induction of P450RAI message by 4-HPR treatment alone ([1]; 10 μM or 1 μM 4HPR alone)
"CC1=C(/C=C/C(C)=C/C=C/C(C)=C/C(=O)O)C(C)(C)CCC1 [RA, all-trans retinoic acid]",very noticeably present,enhanced luciferase activity,promoted conversion of RA into 4-OH-RA and 4-oxo-RA,no expression in the absence or presence of RA,some increase in expression,large dependence on exposure to RA,expressed hP450RAI mRNA,expression appeared to be absent,–,–,–
"CC1=C(/C=C/C(C)=C/C=C/C(C)=C/C(=O)Nc2ccc(O)cc2)C(C)(C)CCC1 [4-HPR, 4-hydroxyphenylretinamide]",–,–,–,–,–,–,–,–,inhibits RA-induced RA catabolism,noticeable suppression of P450RAI induction,does not induce the P450RAI message
